Experimental data as given in PubChem BioAssay AID1346428 (National Center for Advancing Translational Sciences (NCATS), 2018).
“And” between values parts separate entries of the source, which are not always exact repeats. Equal entries are not always repeated. Among all 48,000 compounds or so, about 1,200 (2.5%) were called active. Roughly 2% stayed inconclusive and do not appear here.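 The calls were made as follows: active = activation of at least 60% and not above a set upper limit (about 1 call in 100 departs from these limits); inconclusive = activation of 40% to 60%, or above that upper limit; inactive = activation under 40%.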 The list shows a part of the results.

These compounds were tested against Probable G-protein coupled receptor 32 (Homo sapiens) (UniProt O75388) (assay: qHTS for Agonists of Human Resolvin D1 Receptor DRV1). Details: CHO-K1 GPR32 beta-arrestin PathHunter luminescence, 90 min; at 76.9 µM; active compounds read high; zero percent set by DMSO-only wells.
UniProt O75388, sequence (O75388 whole entry, looked up): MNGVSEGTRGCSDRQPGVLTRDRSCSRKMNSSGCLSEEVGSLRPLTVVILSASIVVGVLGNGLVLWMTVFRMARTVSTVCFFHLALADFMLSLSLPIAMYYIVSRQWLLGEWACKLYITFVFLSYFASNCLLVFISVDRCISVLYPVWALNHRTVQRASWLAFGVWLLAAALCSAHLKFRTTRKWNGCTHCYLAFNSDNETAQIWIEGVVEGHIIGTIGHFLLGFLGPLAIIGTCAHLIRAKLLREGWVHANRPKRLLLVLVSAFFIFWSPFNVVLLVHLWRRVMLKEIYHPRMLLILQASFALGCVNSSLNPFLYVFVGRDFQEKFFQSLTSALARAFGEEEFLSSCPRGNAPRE
How it was run: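 Beta-arrestin recruitment read-out: luminescence from complemented beta-Gal in CHO-K1 GPR32 PathHunter cells, measured 1 h after detection reagent at ambient temperature following 90 min compound exposure at 37 °C; DMSO served as basal (EC0) control.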

Question: With `Cc1oc(-c2ccccc2F)nc1CS(=O)CC(=O)NC(C)C` (configuration not stated) as the compound, how does the activation read?
Answer: The activation was inactive: 3.02%.

Question: How did the activation turn out when `CC/C=C(\C(=O)N[C@@H]1C(=O)N2C(C(=O)OCOC(=O)C(C)(C)C)=C(COC(N)=O)CS[C@H]12)c1csc(N)n1` was run?
Answer: The activation was inactive: 14.1% and inactive: -24.3%.

Question: Which activation does the source give for `Cc1cccc(Cn2c(CNS(=O)(=O)c3ccc(C(C)C)cc3)nc3cccnc32)c1` here?
Answer: Its activation is inactive: -26.3%.

Question: How did the activation turn out when `COc1ccc(OC)c(NC(=O)c2cccc3c2C(=O)N(C2CCCCC2)C3)c1` was run?
Answer: The activation was inactive: -2.72%.

Question: Which activation does the source give for `CCc1ccc(NC(=O)CC2C(=O)NCCN2C(=O)c2ccc(F)cc2)cc1` (configuration not stated) here?
Answer: Its activation is inactive: -11.8%.

Question: `COc1ccc(S(=O)(=O)c2c(Nc3ccccc3F)sc(C(=O)c3cccc(OC)c3)c2N)cc1` was tested. Which activation did it give?
Answer: Its activation is inactive: -45.1%.

Question: How did the activation turn out when `CCc1ccc(NC(=O)NCCc2c(C)nn(C)c2C)cc1` was run?
Answer: Its activation is inactive: -3.06%.

Question: How did the activation turn out when `CSc1ccc(C2C(C(=O)Nc3ccccc3)=C(C)Nc3nc4ccccc4n32)cc1` (configuration not stated) was run?
Answer: Its activation is inactive: 11.1%.

Question: Which activation does the source give for `Cc1cccc(NC(=O)CSc2nnc(NC(=O)Nc3ccccc3)s2)c1C` here?
Answer: Its activation is inactive: -4.41%.

Question: How did the activation turn out when `COc1cccc(C2CC(=O)Nc3c2ccc(C)c3C)c1OC` (configuration not stated) was run?
Answer: Its activation is inactive: 30.4%.

Question: `CCOc1ccccc1CNC(=O)c1ccc(CS(=O)Cc2cccc(Cl)c2)o1` (configuration not stated) was tested. Which activation did it give?
Answer: Its activation is inactive: -19.6%.

Question: How did the activation turn out when `CCOCCOC(=O)/C=C/c1ccc(OC)cc1` was run?
Answer: The activation was inactive: 0.142%.

Question: `CCCC(CCC)(C(=O)OCC)C(=O)OCC` was tested. Which activation did it give?
Answer: The activation was inactive: -1.55%.

Question: Which activation does the source give for `Cc1ccccc1CNC(=O)C(=O)NCC(c1ccco1)S(=O)(=O)c1cccs1` (configuration not stated) here?
Answer: Its activation is inactive: -0.721%.

Question: Which activation does the source give for `NC[C@H]1O[C@H](O[C@H]2[C@H](O)[C@@H](O[C@H]3O[C@H](CO)[C@@H](O)[C@H](N)[C@H]3O)[C@H](N)C[C@@H]2N)[C@H](N)[C@@H](O)[C@@H]1O` here?
Answer: The activation was inactive: -0.321%.

Question: For `Cc1ccc(NC(=O)CSc2ncc(-c3ccccc3)[nH]2)cc1`, which activation is on record?
Answer: Its activation is inactive: -10.8%.

Question: How did the activation turn out when `COc1cccc(NC(=O)CSc2nnc(-c3cccc(OC)c3)o2)c1` was run?
Answer: Its activation is active: 77.8%.

Question: For `CCCCNC(=O)CSc1nc2nc(C)c(Cc3c(F)cccc3Cl)c(C)n2n1`, which activation is on record?
Answer: Its activation is inactive: 18.9%.

Question: How did the activation turn out when `CCC(=O)N1CCc2cc(CNC(=O)c3ccccc3C)ccc21` was run?
Answer: Its activation is inactive: -13.6%.

Question: For `CCOC(=O)c1c(C)[nH]c(C)c1S(=O)(=O)N1CCCC(C(=O)Nc2cc(C)ccc2C)C1` (configuration not stated), which activation is on record?
Answer: The activation was inactive: 4.24%.

Question: How did the activation turn out when `O=C(Nc1ccc2nc(SCC(=O)N3CCc4ccccc43)sc2c1)c1ccccc1` was run?
Answer: Its activation is inactive: -11.2%.

Question: With `Cc1ccc2sc(-c3ccc(N)cc3)nc2c1` as the compound, how does the activation read?
Answer: The activation was inactive: -19.9%.

Question: With `CCc1ccc(-n2c(=O)c3sc4ccccc4c3n(CC(=O)N(CC)Cc3ccccc3)c2=O)cc1` as the compound, how does the activation read?
Answer: The activation was inactive: 2.92%.

Question: With `CCNC(=O)NCc1cccc(Cl)c1` as the compound, how does the activation read?
Answer: The activation was inactive: -19.9%.

Question: Which activation does the source give for `Cc1ccc(-c2nnc(Nc3ccccc3O)c3ccccc23)cc1` here?
Answer: Its activation is inactive: 5.76%.

Question: How did the activation turn out when `Cc1ccc(Cl)cc1N1CCN(C(=O)c2cnn(C)c2C2CCN(C(=O)OC(C)(C)C)CC2)CC1` was run?
Answer: The activation was inactive: 4.68%.

Question: With `O=C(Nc1cc2c(cc1C(=O)c1ccccc1Br)OCCO2)c1ccccc1` as the compound, how does the activation read?
Answer: The activation was inactive: -14.1%.

Question: Which activation does the source give for `O=C(NC1CC(=O)N(c2cccc(F)c2)C1)c1ccc2c(c1)OCO2` (configuration not stated) here?
Answer: Its activation is inactive: -4.01%.

Question: How did the activation turn out when `O=C(C1CCC(Cn2c(=O)c3sccc3n(Cc3ccccc3)c2=O)CC1)N1CCOCC1` (configuration not stated) was run?
Answer: Its activation is inactive: -5.24%.

Question: How did the activation turn out when `Cc1ccc(OCC(=O)Nc2ccccc2C(=O)OCc2cc(=O)n3ccsc3n2)cc1` was run?
Answer: Its activation is inactive: -13.9%.

Question: For `CC(=O)c1ccc(NC(=O)COc2ccccc2-c2nc(-c3ccc(C)cc3)no2)cc1`, which activation is on record?
Answer: The activation was inactive: -0.896%.

Question: How did the activation turn out when `O=C(Nc1ccccc1F)c1ccc(Cn2nc(N3CCN(c4ccccc4)CC3)ccc2=O)o1` was run?
Answer: Its activation is active: 90.1%.

Question: For `COc1cc(OC)c(NC(=O)N2CCc3c([nH]c4ccccc34)C2c2ccccc2F)cc1Cl` (configuration not stated), which activation is on record?
Answer: Its activation is inactive: -19.8%.

Question: For `Cc1cc(C)c(NC(=O)CN2C(=O)c3cccnc3Sc3ccccc32)c(C)c1`, which activation is on record?
Answer: The activation was inactive: -8.59%.

Question: For `O=C(CCC(=O)N1CC2CCCN2c2ccccc21)NCc1ccc(F)cc1` (configuration not stated), which activation is on record?
Answer: Its activation is inactive: -38.4%.

Question: Which activation does the source give for `CCc1cc(C(=O)Nc2c(C)nn(Cc3ccccc3Cl)c2C)no1` here?
Answer: The activation was inactive: 25.1%.

Question: For `CC(=O)O[C@]1(C(C)=O)CC[C@H]2[C@@H]3C=C(C)C4=CC(=O)CC[C@]4(C)[C@H]3CC[C@@]21C`, which activation is on record?
Answer: The activation was inactive: -36%.

Question: `CC(C)CC(C(=O)NCC1CCN(Cc2ccc(F)cc2)CC1)N1Cc2ccccc2C1=O` (configuration not stated) was tested. Which activation did it give?
Answer: Its activation is inactive: -16.8%.

Question: With `COc1ccc(NC(=O)C2CCC(CNS(=O)(=O)c3ccc(Br)s3)CC2)c(OC)c1` (configuration not stated) as the compound, how does the activation read?
Answer: The activation was inactive: 33.3%.

Question: How did the activation turn out when `CC(=O)c1ccc(NC(=O)CCc2c(C)nn(-c3ccc4nnc(C)n4n3)c2C)cc1` was run?
Answer: The activation was inactive: -0.69%.

Question: How did the activation turn out when `CCc1ccc(NC(=O)Cn2cc(S(=O)(=O)c3ccc(F)cc3)c(=O)c3cc(OC)ccc32)cc1` was run?
Answer: The activation was inactive: -13.1%.

Question: For `COc1cc(NC(=O)N2CCC(CN3CCCCCC3)CC2)cc(OC)c1OC`, which activation is on record?
Answer: The activation was inactive: -6%.

Question: Which activation does the source give for `Cc1ccccc1C(=O)N1c2ncnn2C2(CCCCC2)[C@@H]2CCCC[C@@H]21` here?
Answer: Its activation is inactive: -12.5%.

Question: `CCc1nc(-c2ccc(C)c(S(=O)(=O)N3CCN(c4ccc(C(C)=O)cc4)CC3)c2)no1` was tested. Which activation did it give?
Answer: The activation was inactive: -4.4%.

Question: Which activation does the source give for `O=C(CSc1nc(-c2ccccc2)nc2cc(=O)[nH]n12)Nc1ccccc1` here?
Answer: Its activation is inactive: 6.01%.

Question: For `O=C(NCCn1cc(SCc2ccc(F)cc2)c2ccccc21)c1cccs1`, which activation is on record?
Answer: Its activation is inactive: 34.3%.

Question: With `CCn1cc(C(=O)N2CCN(c3cc(Cl)ccc3C)CC2)c(=O)c2cc(S(=O)(=O)N3CCCCC3)ccc21` as the compound, how does the activation read?
Answer: The activation was inactive: -0.472%.

Question: For `Cc1ccccc1Cn1c(=O)n(CCC(=O)NCc2ccco2)c(=O)c2sccc21`, which activation is on record?
Answer: The activation was inactive: -17.4%.

Question: With `COC(=O)C1=C(C)N(C(C)C)C(=O)C1(NC(=O)c1ccc(C(C)(C)C)cc1)C(F)(F)F` (configuration not stated) as the compound, how does the activation read?
Answer: Its activation is inactive: -7.85%.

Question: Which activation does the source give for `CC(C)Nc1nc2c(-c3cccc(Br)c3)nnn2c2ccccc12` here?
Answer: The activation was inactive: 32.9%.

Question: `CCOc1ccc(C(=O)Nc2ccc(-n3nncc3-c3ccc(OC)cc3)cc2)cc1` was tested. Which activation did it give?
Answer: Its activation is inactive: -10.8%.

Question: With `Cc1ccc(NC(=O)CSc2nc(-c3ccco3)nc3cc(=O)[nH]n23)cc1` as the compound, how does the activation read?
Answer: The activation was inactive: -3.71%.
